According to PubChem BioAssay AID1508624 (National Center for Advancing Translational Sciences (NCATS), 2021):
Among all 48,000 compounds or so, about 120 (0.25%) were called active. Inconclusive results (about 4%) are left out. Calls come from the whole dose curve; as a rule, active = well fitted activation curve with a large enough effect; inconclusive = small, poorly fitted or top-dose-only effect, or another doubt; inactive = no such curve, though single readings can be large or run the other way. The list shows a part of the results.

experiment: Primary qHTS for Identification of Small Molecule Activators of Huntingtin-Antisense Promoter Activity; details: HEK293 HTT-AS promoter firefly luciferase reporter (activity 0% = vehicle and -100% = no light), 24 h; series mostly up to 57.5 µM; activity change, positive = activation: at the top concentration; note: nearly all actives have a fitted effect of over 55% in size
In short: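 Firefly luciferase signal from promoter-reporter HEK293 cells was scaled between vehicle (0%) and zero RLU (-100%). Compounds were tested at final concentrations of up to 57.5 uM over 24 h at 37 degrees C. PTC124 at 50 uM final served as control inhibitor.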

Activity change, positive = activation, inactive:
COCCCNC(=O)CSc1c2c(nc3ccc(Cl)cc13)CCCC2 -27.8%
CCN(c1ccc(OC)cc1)S(=O)(=O)c1nnc(NC(=O)c2ccccc2Cl)s1 -20.4%
CCOc1ccc(C2c3c(oc4ccc(C)cc4c3=O)C(=O)N2Cc2ccc3c(c2)OCO3)cc1OC (stereo unspecified) -5.41%
Cc1ccc(CNC(=O)c2ccc(CSCc3ccc(C)cc3)o2)cc1 -25.7%
C=C(C)[C@@H]1CC[C@]2(C)CC[C@]3(C)[C@H](CC[C@@H]4[C@@]5(C)CC[C@H](O)C(C)(C)[C@H]5CC[C@]43C)[C@@H]12 -2.46%
Cc1ccc(NS(=O)(=O)c2ccc3[nH]c4c(c3c2)CCCCCC4)cc1Cl -48.5%
COCC(=O)N1c2nc(C(C)C)nn2C2(CCCCC2)[C@@H]2CCCC[C@@H]21 -31.3%
Cc1c(C(=O)NCc2ccccc2)sc2nc3n(c(=O)c12)CCC3 27.6%
CCCOC(=O)c1ccc(NC(=O)Cc2csc(C)n2)cc1 -0.356%
CSc1nc2sc3c(c2c(=O)n1-c1ccccc1C)CCCC3 -30.1%
Cc1cccc(N2C(=O)CSC23C(=O)N(Cc2cccc(C(F)(F)F)c2)c2ccccc23)c1 (stereo unspecified) -33.5%
CCC(=O)N1CCc2cc(Br)cc(S(=O)(=O)NCc3ccc(Cl)cc3)c21 -24.6%
O=C(Nc1ccc(NC(=O)c2cccs2)cc1)c1ccc(Br)cc1 -28.7%
CC(C)(C)C(=O)Nc1ccc2nc(SCC(=O)N3CCCC3)sc2c1 14.2%
O=C(OCc1ccccc1Cl)c1ccc(-c2nnn(Cc3ccccc3)n2)cc1 -1.18%
CCN(CCCNC(=O)c1cc2cc3cc(C)ccc3nc2s1)c1cccc(C)c1 12.1%
NCC1CCC(C(=O)Oc2ccc(CCC(=O)O)cc2)CC1 (stereo unspecified) -28.3%
COc1ccc(/C=C(/C#N)c2nc(-c3ccc(-c4ccccc4)cc3)cs2)cc1 -2.09%
Cc1ccc(C)c(NC(=O)C(=O)NCCc2csc(-c3ccc(C(F)(F)F)cc3)n2)c1 -7.86%
Cc1nc(-c2ccccc2)sc1CCNC(=O)c1ccco1 -8.51%
CCN(C(=O)Cn1ncc2c1-c1cc(C)ccc1OC2)c1cc(Cl)ccc1OC -44.8%
CCc1ccccc1NC(=O)CSc1ncc2c(n1)-c1ccccc1N(Cc1ccc(C)cc1)S2(=O)=O 10.5%
Cc1ccc(S(=O)(=O)c2cn(Cc3ccccc3)c3cc(N4CCCC4)c(F)cc3c2=O)cc1C -14.3%
COc1ccccc1CNS(=O)(=O)c1c(C)nc2sccn2c1=O -1.97%
CCN(Cc1ccccc1)C(=O)CCNS(=O)(=O)c1ccc2c(c1)CC(C)N2C(C)=O (stereo unspecified) -18.9%
CCOC(=O)c1ccccc1NS(=O)(=O)c1c(-c2ccc(C)cc2)csc1C(=O)OC -34.3%
COc1cccc(CNC(=O)CCc2c(C)c3cc4c(C)c(C)oc4cc3oc2=O)c1 -5.87%
CCC(CC)c1nn2c(=O)cc(COc3ccc(NC(=O)c4ccc(Cl)cc4)cc3)nc2s1 -11.6%
COc1ccc(-n2ncc(C(=O)N3CCN(c4ccccn4)CC3)c2C2CCN(C(=O)OC(C)(C)C)CC2)cc1 0.888%
CC(Sc1oc(-c2ccco2)nc1S(=O)(=O)c1ccc(Br)cc1)c1ccccc1 (stereo unspecified) 1.19%
COCCNc1nc(NCc2ccccc2OC)c2cnn(C)c2n1 -22.9%
CCCCNc1nc(Oc2ccc(=O)n(-c3ccccc3)n2)nc(N(C)C)n1 -11.4%
CN(C(=O)c1nn(C)c2c1COc1ccccc1-2)c1cccc(C(F)(F)F)c1 -11.7%
CCC(C)NC(=O)c1ccc2c(c1)N(Cc1cccc(Cl)c1)C(=O)c1ccccc1S2=O (stereo unspecified) -24.7%
COCCNC(=O)c1c(NC(=O)Cc2coc3cc(C)ccc23)sc2c1CCCC2 -5.96%
Nc1nc(-c2ccccc2)c(Br)c(=O)[nH]1 -2.85%
COc1ccc(N2CCN(CCCNC(=O)c3cnn(-c4ccc(F)cc4)c3-n3cccc3)CC2)cc1 -51.3%
CCOC(=O)c1cn(CC(=O)Nc2cccc(Cl)c2C)nn1 -3.17%
O=C(CN(c1cccc(Br)c1)S(=O)(=O)c1ccccc1)N1CCc2ccccc2C1 -44.6%
COc1ccc(N2CCN(c3nc(-c4ccccc4F)nc4ccccc34)CC2)cc1 -22.7%
CCOc1ccccc1NC(=O)C(NS(=O)(=O)c1cccc2nsnc12)c1ccccc1 (stereo unspecified) -19.7%
Cc1nnc(N2CCN(c3ccccc3F)CC2)c2c1nnn2Cc1ccc(F)cc1 1.28%
CCOC(=O)Cn1c(=O)cc(-c2ccccc2)c2c(C)nn(C)c21 -10.3%
CCC(C)NC(=O)Cn1c(=O)n(-c2ccc(C)cc2)c(=O)c2ccccc21 (stereo unspecified) -17%
CCc1ccccc1N(CC)C(=O)c1cc2c(s1)-c1ccccc1OC2 -27.1%
CCc1ccc(-n2nc(CO)c(C(=O)NCc3ccccn3)n2)cc1 11.7%
COc1ccc(OC)c(CCNC(=O)c2ccc(CS(=O)Cc3cccc(Cl)c3)o2)c1 (stereo unspecified) -18.2%
Cc1ccccc1CSc1nc2nc(C)c(Cc3ccccc3)c(C)n2n1 0.188%
Cc1nc(-c2ccccc2)sc1-c1ccc(SCC(=O)Nc2ccc(F)cc2F)nn1 -0.554%
Cc1oc2ncnc(N3CCCCC3)c2c1C(=O)NCC1CCN(Cc2ccc(F)cc2)CC1 0.7%
CCN(CC)CCOc1ccc(/C(=C(\Cl)c2ccccc2)c2ccccc2)cc1 -24.2%
CC(=O)Cn1nnc2sc(-c3ccccc3)cc2c1=O 23.7%
Cc1c(Cl)cccc1Nc1sc(C(=O)c2ccccc2)c(N)c1S(=O)(=O)c1ccccc1 -14.8%
COc1ccc(-n2c(C)c([N+](=O)[O-])c3ccc(O)cc32)cc1 -28.1%
COCCNC(=O)c1cc2n(n1)CCCN(Cc1ccc(C)cc1)C2=O 10.6%
CCOC(=O)N1CCc2c(sc3c2c(=O)n(Cc2ccccc2)c(=O)n3Cc2c(F)cccc2Cl)C1 -20.7%
CN(Cc1ccccc1)C(=O)c1cc2c(=O)n(C)c3ccccc3c2s1 2.73%
O=C1CC(c2nc3ccccc3n2Cc2c(F)cccc2Cl)CN1c1cccc(C(F)(F)F)c1 (stereo unspecified) -31.8%
CSc1cccc(N2C(=O)N(Cc3ccc([N+](=O)[O-])cc3)c3ccccc3S2(=O)=O)c1 -21%
COc1ccc(CC(=O)Nc2c(C(=O)Nc3ccccc3F)oc3ccccc23)cc1 4.68%
COc1ccc(NC(=O)CC2C(=O)N(c3ccc(C)cc3)C(=O)N2CCc2ccccc2)cc1 (stereo unspecified) 0%
COc1ccc(-c2ccc(NS(=O)(=O)c3ccc(F)c(C(F)(F)F)c3)cc2)nn1 -44.9%
COC(=O)c1c(NC(=O)CCCOc2ccc(C)cc2)sc2c1C(C(=O)OC)CC2 (stereo unspecified) -13.6%
CCc1cccc(CC)c1NC(=O)c1cc(S(=O)(=O)N2CCc3ccccc32)cn1C -25%
Cc1ccc(CN2CCCn3nc(C(=O)NCCN(C)C)cc3C2=O)cc1 20.3%
CCOC(=O)c1c(C)[nH]c(C)c1S(=O)(=O)N1CCC(C(=O)NCc2ccccc2)CC1 -5.98%
Cc1ccc(C)c(OCCSc2nc3ccccc3n2CC(=O)N2CCOCC2)c1 -21.1%
COc1ccc(NC(=O)Cc2coc3cc(C)cc(C)c23)c(OC)c1 -5.54%
COc1ccc2c(c1)c1c(c(=O)n(Cc3ccccc3)c(=O)n1Cc1cc(C)ccc1C)n2C -5.76%
COc1cccc(OCc2nc3ccccc3n2CCOc2ccccc2)c1 -26.7%
Cc1ccc(S(=O)(=O)N2CCCC(c3nc4c(nnn4Cc4ccc(OC(F)(F)F)cc4)c(=O)[nH]3)C2)cc1 (stereo unspecified) 10.6%
CC(C)C[C@H](NC(=O)[C@H](CCc1ccccc1)NC(=O)CN1CCOCC1)C(=O)N[C@@H](Cc1ccccc1)C(=O)N[C@@H](CC(C)C)C(=O)[C@@]1(C)CO1
CCOC(=O)c1ccc2c(c1)N(Cc1cccc([N+](=O)[O-])c1)C(=O)c1ccccc1S2 0.46%
Cn1nc(-c2ccc(OCC(=O)Nc3ccccc3)cc2)c2ccccc2c1=O -25%
O=C(Cn1c(=O)nc(-c2ccccc2)c2cc(Cl)ccc21)NCc1ccccc1 -39.7%
CCn1cc(S(=O)(=O)c2ccccc2)c(=O)c2cc(C)ccc21 -1.77%
CCOC(=O)c1[nH]c2ccccc2c1NC(=O)c1ccc(OC(C)C)cc1 3.86%
COc1cc(OC)cc(C(=O)Nc2ccc(S(=O)(=O)Nc3cc(C)nc(C)n3)cc2)c1 -1.08%
COc1ccc(CCN2CC(C(=O)NCCc3ccc(C)cc3)CC2=O)cc1OC (stereo unspecified) -19.6%
CCCCn1c(COc2cccc(OC)c2)nc2ccccc21 3.1%
NC(=O)N/N=C/c1ccc([N+](=O)[O-])o1
COc1cc(NC(=O)c2cc3c(=O)oc4ccc(C)cc4c3s2)cc(OC)c1OC -8.78%
CC(C)(CC(=O)OCC(=O)Nc1ccc(F)c(Cl)c1)CC1=NS(=O)(=O)c2ccccc2N1 -38.7%
O=C(CSc1nccn1-c1ccc(Cl)cc1)Nc1nc2ccccc2s1 -8.81%
Brc1ccc(-c2cc3c(N4CCN(c5ccccc5)CC4)nccn3n2)cc1 -6.18%
O=C(O)c1[nH]n(-c2ccc(S(=O)(=O)O)cc2)c(=O)c1N=Nc1ccc(S(=O)(=O)O)cc1 -2.95%
Cc1ccccc1NC(=O)c1sc2nc(-c3ccncc3)ccc2c1N -23.5%
CCOC(=O)c1ccc(N2C(=O)c3n[nH]c(-c4cccs4)c3C2c2ccc(C)cc2)cc1 (stereo unspecified) -4.52%
CCCN(CCC)CCCNC(=O)Cn1ncc2c3ccccc3n(Cc3ccc(F)cc3)c2c1=O -4.42%
Cc1nc(C)c(-c2ccc(SCC(=O)Nc3ccccc3F)nn2)s1 3.64%
COCCCNC(=O)CCCn1c(=O)c2cccn2c2cccnc21 -8.85%
COc1cccc(CNC(=O)CCNS(=O)(=O)c2cccc3nsnc23)c1 -21.4%
Cc1cc2ccccc2n1-c1ccc(C(=O)N2CCCCC2)s1 0.65%
CCCCNC(=O)CSc1nc2cc3c(cc2c(=O)n1CCCCCC(=O)NCc1ccc2c(c1)OCO2)OCO3 -2%
Cc1ccc(-n2c(SCC(=O)NCc3ccc(F)cc3)nc3c([nH]c4ccccc43)c2=O)cc1 -38%
COc1ccc(N(CC(=O)NCCc2ccccc2)S(=O)(=O)c2ccccc2)c(OC)c1 0.9%
